# Laboratory results taken from PubChem BioAssay AID624171 (National Center for Advancing Translational Sciences (NCATS), 2012).
# In all, about 410,000 compounds went through this assay and about 1,200 (0.29%) were called active. This list was built around the results that the source calls inconclusive (neither active nor inactive); the mix of calls is not that of the screen. The call rests on the fitted dose curve; in most records, active means well fitted activation curve with a large enough effect; inconclusive means small, poorly fitted or top-dose-only effect; inactive means flat fitted curve, though single readings scatter. Where the call is inconclusive, the potency comes from a doubtful curve fit.
# Test: qHTS of Nrf2 Activators; further: nearly all actives have a fitted effect of over 65% in size
# Conditions: AREc32 ARE-luciferase reporter (MCF7-derived line), luminescence, 24 h; series mostly up to 46.1 µM
# Procedure, shortened: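 AREc32 cells carrying an ARE-driven firefly luciferase, 1000 cells/well in OPTI-MEM with 5% FBS, dosed after overnight attachment and incubated 24 hr at 37 deg C. Steady-Glo luminescence read after 30 min at RT.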
# Potency means the concentration at half of the fitted maximal effect; tags describe the fitted curve by direction and shape.
row,SMILES,Potency
1,COc1ccc([N+](=O)[O-])cc1NC(=O)C(C)OC(=O)c1cccnc1 (stereo not given),"inconclusive: 8.91 µM [activator, partial curve, poor fit]"
2,N=c1n(CCN2CCCCC2)c2ccccc2n1CC(=O)c1cccc([N+](=O)[O-])c1,"inconclusive: 11.2 µM [activator, partial curve]"
3,Clc1nc(-c2ccccn2)nc2scc(-c3ccccc3)c12,"inconclusive: 3.16 µM [activator, partial curve, poor fit]"
4,COc1cc(C(=O)NCC(c2ccc(N(C)C)cc2)N2CCc3ccccc32)cc(OC)c1OC (stereo not given),"inconclusive: 35.5 µM [activator, partial curve, poor fit]"
5,Cc1ccc(C)c(-c2nnc(NC(=O)c3ccc([N+](=O)[O-])o3)o2)c1,active: 3.55 µM
6,COc1cc2nc(CN3CCN(S(=O)(=O)c4ccccc4C(F)(F)F)CC3)[nH]c(=O)c2cc1OC,inactive
7,c1ccc(C2OC3c4cccc5cccc(c45)C3N2c2ccccc2)cc1 (stereo not given),"inconclusive: 35.5 µM [activator, single point]"
8,Cc1nnnn1/C(=C\c1ccccc1)C(=O)OCC(=O)NC(C)(C)C,"inconclusive: 17.8 µM [activator, single point]"
9,CC(=O)Oc1ccc2ccc3ccc(C(C)=O)cc3c2c1,"inconclusive: 22.4 µM [activator, partial curve, poor fit]"
10,CCCCCn1c(=O)[nH]c2cc(C(=O)Nc3cc(OC)cc(OC)c3)ccc2c1=O,inactive
11,COc1cc(-c2nc(-c3ccc(NC(=O)c4ccc(Br)o4)cc3)no2)cc(OC)c1OC,inactive
12,O=S(=O)(c1cccc(-c2nnc(SCc3nc4ccccc4s3)o2)c1)N1CCOCC1,active: 14.1 µM
13,O=C(c1ccc(CS(=O)c2ccc(F)cc2)o1)N1CCN(C2CCCCC2)CC1 (stereo not given),inactive
14,COC1(OC)C(/C=C/c2ccc(Cl)cc2)C(C#N)(C#N)C1(OC)OC (stereo not given),"inconclusive: 5.62 µM [activator, single point]"
15,c1ccc(Cc2nnc(Sc3ccccc3)c3ccccc23)cc1,"inconclusive: 28.2 µM [activator, single point]"
16,CC1(C)C(=O)N(OCc2ccccc2)C(C)(C)C(=O)N1OCc1ccccc1,inactive
17,COc1ccc(CNC(=O)CN(c2ccc(C)cc2)S(=O)(=O)c2c(C)n[nH]c2C)cc1,inactive
18,Cc1cc(O)c(C(C[N+](=O)[O-])c2ccc(Cl)cc2Cl)c(=O)o1 (stereo not given),"inconclusive: 22.4 µM [activator, single point]"
19,O=C(OCc1nnc(-c2ccccc2)o1)c1ccc(Br)o1,inactive
20,O=C(NC(=S)Nc1ccccn1)c1ccccc1,"inconclusive: 1.78 µM [activator, full curve, poor fit]"
21,COc1cccc(/C=C/c2ccc3cccc(O)c3n2)c1,"inconclusive: 12.6 µM [activator, partial curve, poor fit]"
22,O=c1cc(-c2ccccc2F)oc2ccccc12,"inconclusive: 17.8 µM [activator, single point]"
23,O=C(C=Cc1ccccn1)c1ccccc1O,"inconclusive: 15.8 µM [activator, partial curve, poor fit]"
24,Cc1cccc(/C(N)=N/OC(=O)c2cccs2)c1,active: 14.1 µM

row,SMILES,Potency
1,CN(C)CCN(C(=O)/C=C/c1cccs1)c1nc2ccc(Br)cc2s1,"inconclusive: 5.62 µM [activator, single point]"
2,O=C(O)c1ccc(CN2C(=O)c3cccc4c([N+](=O)[O-])ccc(c34)C2=O)cc1,"inconclusive: 2.51 µM [activator, full curve, poor fit]"
3,c1coc(-c2nnc3sc(-c4cccs4)nn23)c1,"inconclusive: 14.1 µM [activator, partial curve, poor fit]"
4,O=C(O)c1ccc(/C=C(\c2nc3ccccc3[nH]2)c2nc3ccccc3s2)cc1,"inconclusive: 35.5 µM [activator, single point]"
5,O=C(Cn1sc2ccccc2c1=O)NC12CC3CC(CC(C3)C1)C2,active: 12.6 µM
6,O=C(NO)c1ccc(OC(F)F)cc1,"inconclusive: 20 µM [activator, single point]"
7,O=[N+]([O-])c1ccc(/C=N/Nc2nc(NCc3ccccc3)nc(N3CCOCC3)n2)cc1,inactive
8,Cn1cnnc1SCC(=O)Nc1ccc(Br)cc1F,inactive
9,O=C(Nc1ccc2[nH]c(=O)[nH]c2c1)c1cccc([N+](=O)[O-])c1,inactive
10,S=C1SCN(Cc2cccs2)CN1Cc1cccs1,"inconclusive: 17.8 µM [activator, single point]"
11,CCc1sc(C(=O)NCc2ccco2)cc1Br,"inconclusive: 2.51 µM [activator, partial curve, poor fit]"
12,Cc1cc(/C=C\c2ccccc2)nc2ccccc12,"inconclusive: 11.2 µM [activator, partial curve, poor fit]"
13,COc1ccc(CN(C)S(=O)(=O)c2nnc(NC(=O)C(C)C)s2)cc1OC,inactive
14,Cc1nc(Cl)sc1C(=O)Nc1cccc(Cl)c1,"inconclusive: 35.5 µM [activator, single point]"
15,CN1C(=O)c2cccc3c(S(=O)(=O)Nc4ccccc4F)ccc1c23,"inconclusive: 35.5 µM [activator, partial curve, poor fit]"
16,O=C(CCS(=O)(=O)c1ccc(F)cc1)Nc1nc(-c2ccncc2)cs1,active: 15.8 µM
17,CCc1cc2c(=O)[nH]c(-c3ccccn3)nc2s1,"inconclusive: 22.4 µM [activator, single point]"
18,O=C1C(Cl)=C(NS(=O)(=O)c2ccc([N+](=O)[O-])cc2)C(=O)c2ccccc21,"inconclusive: 15.8 µM [activator, partial curve, poor fit]"
19,Cc1nc(Cl)sc1C(=O)Nc1ccccc1Cl,"inconclusive: 31.6 µM [activator, single point]"
20,COc1ccc(C(=O)/C=C/c2cccc(OCc3ccccc3)c2)cc1CSCC(=O)O,"inconclusive: 11.2 µM [activator, partial curve, poor fit]"
21,CCS(=O)(=O)CCSc1nc(C)cc(C)c1C#N,inactive
22,Cc1ccc(CCNC(=O)CCCn2c(=O)c3ccccc3n(CC(=O)Nc3cc(Cl)ccc3C)c2=O)cc1,inactive
23,Cc1ccc(N=Nc2ccc3ccccc3c2O)cc1,"inconclusive: 4.47 µM [activator, full curve]"
24,O=c1oc2cc(O)ccc2s1,"inconclusive: 35.5 µM [activator, partial curve, poor fit]"

row,SMILES,Potency
1,Cc1ccc(Cl)c(N/C=C/C(=O)c2ccccc2)c1,"inconclusive: 7.08 µM [activator, partial curve, poor fit]"
2,CCOc1ccc2nc(S(N)(=O)=O)sc2c1,"inconclusive: 12.6 µM [activator, single point]"
3,O=C(COc1ccccc1/C=C1\SC(=O)NC1=O)Nc1ccc(F)cc1,"inconclusive: 11.2 µM [activator, partial curve]"
4,COc1ccc([N+](=O)[O-])cc1NC(=O)C(C)OC(=O)/C=C/c1ccco1 (stereo not given),active: 12.6 µM
5,Cc1ccc(-n2ncc(Br)c(Br)c2=O)cc1,"inconclusive: 3.55 µM [activator, single point]"
6,O=C(O)/C=C/c1cn(-c2ccccc2)nc1-c1cccc([N+](=O)[O-])c1,"inconclusive: 14.1 µM [activator, single point]"
7,COc1cccc(C(C)(O)c2nc(-c3ccoc3)cs2)c1 (stereo not given),"inconclusive: 20 µM [activator, single point]"
8,O=C(Nc1nc(-c2cccs2)cs1)c1ccco1,active: 12.6 µM
9,O=C(Nc1ccccn1)C(=O)Nc1ccccn1,"inconclusive: 12.6 µM [activator, single point]"
10,COc1ccc(/C=C/C(=O)OCC(=O)Nc2ccc(C)cc2)cc1S(=O)(=O)N1CCOCC1,inactive
11,COC(=O)c1ccc2nc(-c3ccc(C)cc3)c(CC3CCCCC3)n2c1,"inconclusive: 11.2 µM [activator, single point]"
12,c1ccc(CSc2nccc(-c3ccco3)n2)cc1,active: 10 µM
13,COc1ccc(C(=O)/C=C/c2ccccc2F)c(OC(=O)c2ccc([N+](=O)[O-])cc2)c1,"inconclusive: 7.94 µM [activator, partial curve]"
14,O=C(CC(=O)N/N=C\c1ccccc1[N+](=O)[O-])NCCc1ccccc1,"inconclusive: 11.2 µM [activator, partial curve]"
15,Clc1c(CSc2nc3ccccc3o2)nc2sccn12,"inconclusive: 17.8 µM [activator, partial curve, poor fit]"
16,CC(=O)Nc1nonc1-c1nc2ccccc2n1N(C(C)=O)C(C)=O,inactive
17,COc1ccccc1NC(=O)Nc1nc2ccc(S(N)(=O)=O)cc2s1,inactive
18,Cc1cc(Br)ccc1NC(=O)CNC(=O)Cn1ncc(Cl)c(Cl)c1=O,"inconclusive: 4.47 µM [activator, partial curve, poor fit]"
19,CC(C)NC(=O)C1CCC(Cn2c(=O)c3sccc3n(CC(=O)Nc3ccccc3)c2=O)CC1 (stereo not given),inactive
20,N/C(=N\OC(=O)c1cc([N+](=O)[O-])ccc1Cl)c1ccccn1,"inconclusive: 20 µM [activator, partial curve, poor fit]"
21,N/C(=N\OC(=O)c1cccs1)c1cccc([N+](=O)[O-])c1,"inconclusive: 11.2 µM [activator, partial curve, poor fit]"
22,FC(F)(F)c1cc(-c2cccc(Br)c2)nc2ncnn12,"inconclusive: 11.2 µM [activator, partial curve, poor fit]"
